According to PubChem BioAssay AID686970 (National Center for Advancing Translational Sciences (NCATS), 2013):
Out of some 360,000 compounds screened, about 6,000 (1.7%) were called active. The inconclusive results got no clear call from the source; some entries with a clear call stand among them for comparison. The call rests on the fitted dose curve; in most records, active means well fitted cell-killing curve with a large enough effect; inconclusive means small, poorly fitted or top-dose-only effect, or effect the other way; inactive means flat fitted curve, though single readings scatter. No potency is given beside an inconclusive call; the fits are too rough.

Experiment: qHTS for induction of synthetic lethality in tumor cells producing 2HG: qHTS for the HT-1080-NT fibrosarcoma cell line;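 further: NT is the 2HG producing partner of a matched IDH1 knockdown line; nearly all actives have a fitted effect of over 55% in size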;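 on activity, negative = less viability: 0% = DMSO-treated cells and -100% = media-only wells without cells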
Conditions: HT-1080-NT fibrosarcoma viability, CellTiter-Glo ATP luminescence, 48 h; activity, negative = less viability: at 46.1 µM (top of the series) unless noted
Summary of the method: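 Viability by CellTiter-Glo luminescence after 48 h compound exposure at 37C of HT-1080-NT cells (750/well, RPMI, 5% FBS). % activity scaled between DMSO wells and medium-only wells, then curve-fitted and categorized by curve class.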
Potency means the concentration at half of the fitted maximal effect; tags describe the fitted curve by direction and shape.

Q: For `O=C(Cc1ccc(S(=O)(=O)N2CCOCC2)s1)N1CCN(c2cccc(C(F)(F)F)c2)CC1`, which “activity, negative = less viability” value is on record?
A: Its value is inactive: -24.6%.

Q: With `CN1C[C@@H]2[C@@H]3C(=O)N(C)C(=O)[C@@H]3[C@](C)(C1=O)N2C(=O)c1ccc(Cl)c(Cl)c1` as the compound, how does the “activity, negative = less viability” value read?
A: The value was inactive: 4.91%.

Q: For `Cn1c(CO)c(-c2ccccc2)c2cc([N+](=O)[O-])ccc21`, which Potency is on record?
A: Its Potency is inconclusive [cytotoxic, single point].

Q: With `c1nnc2c3c4c(sc3ncn12)CCC4` as the compound, how does the Potency read?
A: Its Potency is inconclusive [cytotoxic, single point].

Q: Which “activity, negative = less viability” value does the source give for `CC(=NNc1ccccc1)C(C)=NNc1ccccc1` here?
A: Its value is inactive: 5.73%.

Q: Which Potency does the source give for `CCC(Oc1cc(Cl)ccc1Cl)C(=O)NN1C(=O)C2C3CCC(C3=C(C)C)C2C1=O` (stereo not drawn) here?
A: Its Potency is inconclusive [cytotoxic, partial curve].

Q: For `c1ccc(-c2cn3nc4c(nc3n2)CCCC4)cc1`, which Potency is on record?
A: Its Potency is inconclusive [cytotoxic, single point].

Q: Which Potency does the source give for `O=C(C[n+]1cc(-c2ccc(Cl)c(Cl)c2)n2c1CCC2)N1c2ccccc2Sc2ccccc21` here?
A: The Potency was inconclusive [cytotoxic, partial curve].

Q: For `Cc1ccccc1OCC(=O)NNC(=S)NC(=O)c1ccccc1[N+](=O)[O-]`, which “activity, negative = less viability” value is on record?
A: The value was inactive: -18.3%.

Q: With `CNc1sc(C(=O)c2ccc(F)cc2)c(N)c1-c1nc2ccccc2s1` as the compound, how does the Potency read?
A: Its Potency is active: 11.2 µM.

Q: For `CCc1nnc(NS(=O)(=O)c2ccc(N=Cc3c(C)[nH]n(-c4ccc(C)cc4)c3=O)cc2)s1`, which Potency is on record?
A: The Potency was inconclusive [cytotoxic, single point].

Q: With `CCOC(=O)c1sc(NC(=O)c2ccccc2OCC)nc1C` as the compound, how does the “activity, negative = less viability” value read?
A: Its value is inactive: 0%.

Q: Which “activity, negative = less viability” value does the source give for `Cc1ccc(CSC2=Nc3ccccc3C3=NC(CC(=O)NCc4ccco4)C(=O)N23)cc1` (stereo not drawn) here?
A: Its value is inactive: 6.59%.

Q: Which Potency does the source give for `CCSc1ncc(/C=N/Nc2ccc(Cl)cc2)n1C` here?
A: The Potency was inconclusive [cytotoxic, partial curve].

Q: With `COc1ccc(C(=O)NCC(=O)OCC(=O)Nc2c(C)n(C)n(-c3ccccc3)c2=O)cc1` as the compound, how does the Potency read?
A: The Potency was inconclusive [cytotoxic, single point].

Q: For `COc1cccc(/C=N/NC(=O)CSc2nnc(C)n2-c2ccccc2)c1O`, which Potency is on record?
A: Its Potency is inconclusive [cytotoxic, partial curve].

Q: With `Cc1ccc(C(=O)O/N=C(\N)Cc2cccs2)c(Cl)c1` as the compound, how does the Potency read?
A: The Potency was inconclusive [cytotoxic, single point].

Q: With `CN(C)CCCNc1nc2cc(-c3cccc(C(F)(F)F)c3)sc2c(=O)n1C` as the compound, how does the Potency read?
A: The Potency was inconclusive [cytotoxic, single point].

Q: Which “activity, negative = less viability” value does the source give for `COC(=O)[C@]12CCCCC=C1N(Cc1ccccc1)C(=O)[C@H](CC(=O)N1CCSCC1)C2` here?
A: Its value is inactive: 12.9%.

Q: Which Potency does the source give for `Cc1ccc(C2CC(=O)C(C=NCCN3CCN(C(=S)Nc4ccc(F)cc4)CC3)=C(O)C2)cc1` (stereo not drawn) here?
A: The Potency was inconclusive [cytotoxic, single point].

Q: For `O=C(NCc1cccnc1)c1cc(C2CCCCN2C(=O)c2ccccc2)on1` (stereo not drawn), which Potency is on record?
A: The Potency was inconclusive [rising, single point].

Q: Which Potency does the source give for `Cc1nc2c(OCc3cc(Cl)cc(Cl)c3)cccn2c1N(C)C(=O)CCC1CCCC1` here?
A: Its Potency is inconclusive [cytotoxic, single point].

Q: With `CC(C)C(=O)N(c1ccc2oc(=O)sc2c1)S(=O)(=O)c1ccccc1` as the compound, how does the Potency read?
A: Its Potency is inconclusive [cytotoxic, single point].

Q: For `CC(C)(C)Nc1nc(NN)nc(NC(C)(C)C)n1`, which Potency is on record?
A: Its Potency is inconclusive [cytotoxic, partial curve].

Q: Which Potency does the source give for `O=C(O)CCC(=O)Nc1nc2nccc(-c3ccccc3)n2n1` here?
A: The Potency was inconclusive [rising, partial curve, poor fit].

Q: With `Cc1ccc2c(c1)-c1c(cnn1CC(=O)N(Cc1ccco1)C1CCCCC1)CO2` as the compound, how does the Potency read?
A: Its Potency is inconclusive [cytotoxic, single point].

Q: With `O=C(c1cn(-c2ccccc2)nc1-c1cccs1)N(CCO)Cc1ccccc1` as the compound, how does the “activity, negative = less viability” value read?
A: Its value is inactive: -23.1%.

Q: For `O=C(Cn1cc(S(=O)(=O)N2CCN(c3ccccc3F)CC2)c2ccccc2c1=O)NCCCN1CCCCCC1`, which Potency is on record?
A: Its Potency is inconclusive [cytotoxic, single point].

Q: With `Clc1ccc(-c2nc3ccc(Br)cn3c2Cc2cccc(Cl)c2)cc1` as the compound, how does the Potency read?
A: Its Potency is inconclusive [cytotoxic, single point].

Q: For `CCCC[C@@H](CNC)NC[C@H](Cc1ccc(O)cc1)NCCc1ccc(OCC)cc1`, which activity, negative = less viability is on record?
A: Its activity, negative = less viability is inconclusive: -34.9% [cytotoxic].

Q: For `O=C1NC[C@@H](CCCCN2CCN(CCc3ccccc3)C(=O)C2=O)N(CC2CCCCC2)C1=O`, which “activity, negative = less viability” value is on record?
A: Its value is inactive: 12%.

Q: Which Potency does the source give for `Cc1ccc(C)c(CSc2nnc(-c3cccs3)n2Cc2ccco2)c1` here?
A: The Potency was inconclusive [cytotoxic, single point].

Q: For `Cc1cc(C)c2cc(C(=O)N3CCC(Cc4ccccc4)CC3)[nH]c2c1`, which Potency is on record?
A: Its Potency is inconclusive [cytotoxic, single point].

Q: With `O=C(Nc1ccc(O)c(C(=O)O)c1)c1ccc2c(c1)C(=O)N(CC1CCCO1)C2=O` (stereo not drawn) as the compound, how does the “activity, negative = less viability” value read?
A: Its value is inactive: 7.23%.

Q: With `C=CC[C@H](CC(=O)N[C@H](CO)Cc1ccccc1)C(=O)N[C@@H](COC(=O)[C@H](CC=C)CC(=O)OC(C)(C)C)Cc1c[nH]c2ccccc12` as the compound, how does the Potency read?
A: The Potency was inconclusive [cytotoxic, single point].

Q: Which Potency does the source give for `O=C(O)c1cccnc1SCc1cccc(Cl)c1` here?
A: Its Potency is inconclusive [cytotoxic, single point].

Q: Which Potency does the source give for `O=C(NCCC(=O)N1CCCC1)c1ccccc1Cl` here?
A: Its Potency is inconclusive [rising, partial curve].

Q: With `O=C(CC1Sc2ccccc2NC1=O)NNc1cc(Cl)ccc1Cl` (stereo not drawn) as the compound, how does the Potency read?
A: The Potency was inconclusive [cytotoxic, partial curve].

Q: With `CCC1Sc2ccc(S(=O)(=O)Nc3cc(OC)cc(OC)c3)cc2NC1=O` (stereo not drawn) as the compound, how does the Potency read?
A: The Potency was inconclusive [cytotoxic, single point].

Q: With `CC(C)(C)c1cc(OC(=O)c2ccccc2F)ccc1O` as the compound, how does the Potency read?
A: The Potency was active: 32.6 µM.

Q: With `O=C(Nc1ccc(F)c(F)c1)C1CCN(S(=O)(=O)c2cccc3nonc23)CC1` as the compound, how does the Potency read?
A: The Potency was inconclusive [cytotoxic, single point].

Q: With `O=C(NCc1ccc2c(c1)OCO2)C1CCN(C(=O)Nc2ccc(Cl)cc2)CC1` as the compound, how does the Potency read?
A: The Potency was inconclusive [cytotoxic, single point].

Q: With `Cc1cc(C)cc(NC(=S)Nc2cccc3cnccc23)c1` as the compound, how does the “activity, negative = less viability” value read?
A: The value was inactive: 1.67%.

Q: With `Cc1ccc(S(=O)(=O)Nc2cc(C)on2)cc1` as the compound, how does the “activity, negative = less viability” value read?
A: Its value is inactive: 6.43%.

Q: Which Potency does the source give for `CC(=O)Oc1ccc2ccccc2c1C(NC(=O)Cc1ccccc1)c1ccccc1` (stereo not drawn) here?
A: The Potency was inconclusive [cytotoxic, single point].

Q: With `O=C(Cn1c(CN2CCCCC2)nc2ccccc2c1=O)Nc1ccccc1` as the compound, how does the Potency read?
A: The Potency was inconclusive [cytotoxic, single point].

Q: With `N#CCC(=O)NCCCOC(=O)Nc1ccc(Cl)c(Cl)c1` as the compound, how does the Potency read?
A: Its Potency is inconclusive [cytotoxic, single point].

Q: With `COc1ccc(S(=O)(=O)Nc2ccc(F)cc2)cc1N(C)S(=O)(=O)c1ccc(Cl)cc1` as the compound, how does the Potency read?
A: The Potency was inconclusive [cytotoxic, single point].

Q: For `CCN1CCCC1CNC(=O)c1cc2c(-c3ccc(Cl)cc3)nn(C)c2s1` (stereo not drawn), which Potency is on record?
A: The Potency was active: 25.9 µM.

Q: For `CCOC(=O)C1CCCN(C(=O)C2CCCN(S(=O)(=O)c3ccc4c(c3)oc(=O)n4C)C2)C1` (stereo not drawn), which “activity, negative = less viability” value is on record?
A: Its value is inactive: 3.04%.

Q: With `C=CCc1cc(Cl)ccc1OCCCNCCO` as the compound, how does the Potency read?
A: Its Potency is inconclusive [cytotoxic, single point].

Q: With `Cc1ccc2nc(SCn3nnc4ccccc4c3=O)[nH]c2c1` as the compound, how does the “activity, negative = less viability” value read?
A: The value was inactive: -2.06%.

Q: Which Potency does the source give for `Cc1cc(C(C)(C)C)cc(C)c1S(=O)(=O)N1CCN(C(=O)c2cc([N+](=O)[O-])c[nH]c2=O)CC1` here?
A: The Potency was inconclusive [cytotoxic, single point].

Q: For `Cc1cc(C)cc(NC(=O)Cn2ncn3c(cc4ccccc43)c2=O)c1`, which Potency is on record?
A: The Potency was inconclusive [cytotoxic, single point].

Q: For `COC(=O)[C@@]12C[C@@H](CC(=O)NCc3cccc(C(F)(F)F)c3)C(=O)N(Cc3ccccc3)C1=CCC(C)(C)C2`, which Potency is on record?
A: The Potency was inconclusive [cytotoxic, single point].

Q: For `CS(=O)(=O)Nc1cccc(NC(=O)c2ccc(-n3ccnc3)c3ccoc23)c1`, which “activity, negative = less viability” value is on record?
A: The value was inactive: 13%.

Q: With `COc1ccc(CCn2c(C)cc(C(=O)CSc3nc(N)cc(=O)[nH]3)c2C)cc1` as the compound, how does the Potency read?
A: The Potency was inconclusive [cytotoxic, single point].

Q: Which Potency does the source give for `CC(=O)NC1C(=O)N=C(SCC(=O)NCc2ccccc2)NC1=O` (stereo not drawn) here?
A: The Potency was inconclusive [rising, single point].

Q: With `Cc1ccc(N=Nc2ccc(O)c3ncccc23)cc1C` as the compound, how does the Potency read?
A: Its Potency is inconclusive [cytotoxic, full curve].

Q: For `CC(C)(C)OC(=O)[C@H](Cc1ccccc1)NC(=O)c1[nH]cnc1C(=O)Nc1ccc(Cl)cc1`, which Potency is on record?
A: The Potency was inconclusive [cytotoxic, single point].

Q: With `Cc1nn(-c2ccccc2)c(Oc2ccccc2)c1C=O` as the compound, how does the “activity, negative = less viability” value read?
A: Its value is inactive: -4.05%.

Q: Which “activity, negative = less viability” value does the source give for `FC(F)(F)c1ccncc1-c1nnnn1-c1ccc(Cl)cc1` here?
A: The value was inactive: 5.1%.

Q: Which Potency does the source give for `Cc1ccccc1-n1c(SC2CCOC2=O)nnc1-c1ccncc1` (stereo not drawn) here?
A: The Potency was inconclusive [rising, single point].

Q: Which “activity, negative = less viability” value does the source give for `Cc1cccc(NC(=O)c2ccc(COc3ccc4ccccc4c3)o2)n1` here?
A: The value was inactive: -7.33%.

Q: For `CCN(CC)S(=O)(=O)c1ccc(-c2nnc(SC)o2)cc1`, which “activity, negative = less viability” value is on record?
A: The value was inactive: 14.9%.

Q: With `CCCCN(C)C(=O)c1cc2cc3ccc(OC)cc3nc2o1` as the compound, how does the Potency read?
A: The Potency was inconclusive [cytotoxic, partial curve].

Q: Which Potency does the source give for `Cc1nc([N+](=O)[O-])c(Br)n1CC(=O)c1ccc(F)cc1` here?
A: Its Potency is inconclusive [cytotoxic, single point].

Q: With `CCN1CCN(c2ccc(S(=O)(=O)N3CCCCC3)cc2NC(=O)CC(NC(C)=O)c2ccccc2)CC1` (stereo not drawn) as the compound, how does the “activity, negative = less viability” value read?
A: Its value is inactive: -3.14%.
